Laboratory results published in the supplement of paper PMC4967469.
Lines with a small IC50 respond at low doses; a limit (>, <) means that the fit lies beyond the doses tested. For AUC the same curve is integrated over the 256-fold range of doses and scaled to a fraction; values near 1 show little effect. A top dose marked as inferred was derived from the fitted curves, not read from the paper. For part of these data: An entry number marks a drug with two screens in the source, which often give different values.

compound: O=C1NC(=O)c2c1c(-c1ccccc1Cl)cc1[nH]c3ccc(O)cc3c21 [Wee1 inhibitor 681640]; test: Viability of human cancer cell lines after 72 h of drug (GDSC screen); settings: top dose 2 µM; top dose inferred
Protocol: (§1)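 Human cancer cell lines in 384-well plates, medium with 10% serum, drug for 72 h over a 256-fold dose range (nine 2-fold or five 4-fold steps up to the top dose). Adherent lines were fixed and stained with the nucleic acid dye Syto60, suspension lines read with resazurin; signal relative to control wells, capped at 0 and 100%. One two-parameter sigmoid per drug and line, fitted in a mixed model over all curves with the slope shared within a line.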

| Cell Line | AUC | IC50 [nM] |
| --- | --- | --- |
| LOU-NH91 (lung squamous cell carcinoma, adherent) | 0.968 | > 2000 |
| LS-180 (large intestine, adherent) | 0.909 | > 2000 |
| M059J (glioma, adherent) | 0.969 | > 2000 |
| MES-SA (uterus, adherent) | 0.988 | > 2000 |
| MFE-280 (endometrium, adherent) | 0.982 | > 2000 |
| MFE-296 (endometrium, adherent) | 0.96 | > 2000 |
| MOG-G-CCM (glioma, adherent) | 0.865 | > 2000 |
| NCI-H28 (mesothelioma, adherent) | 0.94 | > 2000 |
| NCI-H630 (large intestine, adherent) | 0.878 | > 2000 |
| NCI-H650 (lung adenocarcinoma, adherent) | 0.964 | > 2000 |
| NCI-H810 (large cell lung carcinoma, adherent) | 0.942 | > 2000 |
| NCI-H1437 (lung adenocarcinoma, adherent) | 0.975 | > 2000 |
| NCI-H1563 (lung adenocarcinoma, adherent) | 0.985 | > 2000 |
| NCI-H1623 (lung adenocarcinoma, adherent) | 0.969 | > 2000 |
| NCI-H1651 (lung adenocarcinoma, adherent) | 0.948 | > 2000 |
| NCI-H1755 (lung adenocarcinoma, adherent) | 0.939 | > 2000 |
| NCI-H1781 (lung adenocarcinoma, adherent) | 0.989 | > 2000 |
| NCI-H1993 (lung adenocarcinoma, adherent) | 0.982 | > 2000 |
| NCI-H2087 (lung adenocarcinoma, semi-adherent) | 0.902 | > 2000 |
| NCI-H2291 (lung adenocarcinoma, adherent) | 0.96 | > 2000 |
| NCI-H2347 (lung adenocarcinoma, adherent) | 0.957 | > 2000 |
| NUGC-4 (stomach, adherent) | 0.986 | > 2000 |
| PC-14 (lung adenocarcinoma, adherent) | 0.911 | > 2000 |
| PFSK-1 (medulloblastoma, adherent) | 0.95 | > 2000 |
| RCM-1 (large intestine, adherent) | 0.958 | > 2000 |

compound: Cc1ccc(-n2nc(C(C)(C)C)cc2NC(=O)Nc2ccc(OCCN3CCOCC3)c3ccccc23)cc1 [BIRB 0796]; test: as above; settings: top dose 10 µM; top dose inferred
Protocol: as §1

| Cell Line | AUC | IC50 [nM] |
| --- | --- | --- |
| LOU-NH91 (lung squamous cell carcinoma, adherent) | 0.882 | > 10000 |
| LS-180 (large intestine, adherent) | 0.934 | > 10000 |
| M059J (glioma, adherent) | 0.985 | > 10000 |
| MES-SA (uterus, adherent) | 0.926 | > 10000 |
| MFE-280 (endometrium, adherent) | 0.943 | > 10000 |
| MFE-296 (endometrium, adherent) | 0.974 | > 10000 |
| MOG-G-CCM (glioma, adherent) | 0.946 | > 10000 |
| NCI-H28 (mesothelioma, adherent) | 0.902 | > 10000 |
| NCI-H630 (large intestine, adherent) | 0.959 | > 10000 |
| NCI-H650 (lung adenocarcinoma, adherent) | 0.984 | > 10000 |
| NCI-H810 (large cell lung carcinoma, adherent) | 0.986 | > 10000 |
| NCI-H1437 (lung adenocarcinoma, adherent) | 0.925 | > 10000 |
| NCI-H1563 (lung adenocarcinoma, adherent) | 0.916 | > 10000 |
| NCI-H1623 (lung adenocarcinoma, adherent) | 0.983 | > 10000 |
| NCI-H1651 (lung adenocarcinoma, adherent) | 0.983 | > 10000 |
| NCI-H1755 (lung adenocarcinoma, adherent) | 0.968 | > 10000 |
| NCI-H1781 (lung adenocarcinoma, adherent) | 0.981 | > 10000 |
| NCI-H1993 (lung adenocarcinoma, adherent) | 0.981 | > 10000 |
| NCI-H2087 (lung adenocarcinoma, semi-adherent) | 0.975 | > 10000 |
| NCI-H2291 (lung adenocarcinoma, adherent) | 0.958 | > 10000 |
| NCI-H2347 (lung adenocarcinoma, adherent) | 0.978 | > 10000 |
| NUGC-4 (stomach, adherent) | 0.937 | > 10000 |
| PC-14 (lung adenocarcinoma, adherent) | 0.984 | > 10000 |
| PFSK-1 (medulloblastoma, adherent) | 0.829 | 6740 |
| RCM-1 (large intestine, adherent) | 0.981 | > 10000 |

compound: NC(=O)c1ccc(N(C(N)=O)c2c(F)cccc2F)nc1-c1ccc(F)cc1F [VX-702]; test: as above; settings: top dose 2 µM; top dose inferred
Protocol: as §1

| Cell Line | AUC | IC50 [nM] |
| --- | --- | --- |
| LOU-NH91 (lung squamous cell carcinoma, adherent) | 0.986 | > 2000 |
| LS-180 (large intestine, adherent) | 0.983 | > 2000 |
| M059J (glioma, adherent) | 0.983 | > 2000 |
| MES-SA (uterus, adherent) | 0.992 | > 2000 |
| MFE-280 (endometrium, adherent) | 0.982 | > 2000 |
| MFE-296 (endometrium, adherent) | 0.985 | > 2000 |
| MOG-G-CCM (glioma, adherent) | 0.983 | > 2000 |
| NCI-H28 (mesothelioma, adherent) | 0.957 | > 2000 |
| NCI-H630 (large intestine, adherent) | 0.984 | > 2000 |
| NCI-H650 (lung adenocarcinoma, adherent) | 0.971 | > 2000 |
| NCI-H810 (large cell lung carcinoma, adherent) | 0.969 | > 2000 |
| NCI-H1437 (lung adenocarcinoma, adherent) | 0.985 | > 2000 |
| NCI-H1563 (lung adenocarcinoma, adherent) | 0.985 | > 2000 |
| NCI-H1623 (lung adenocarcinoma, adherent) | 0.982 | > 2000 |
| NCI-H1651 (lung adenocarcinoma, adherent) | 0.987 | > 2000 |
| NCI-H1755 (lung adenocarcinoma, adherent) | 0.984 | > 2000 |
| NCI-H1781 (lung adenocarcinoma, adherent) | 0.989 | > 2000 |
| NCI-H1993 (lung adenocarcinoma, adherent) | 0.972 | > 2000 |
| NCI-H2087 (lung adenocarcinoma, semi-adherent) | 0.985 | > 2000 |
| NCI-H2291 (lung adenocarcinoma, adherent) | 0.984 | > 2000 |
| NCI-H2347 (lung adenocarcinoma, adherent) | 0.983 | > 2000 |
| NUGC-4 (stomach, adherent) | 0.987 | > 2000 |
| PC-14 (lung adenocarcinoma, adherent) | 0.99 | > 2000 |
| PFSK-1 (medulloblastoma, adherent) | 0.986 | > 2000 |
| RCM-1 (large intestine, adherent) | 0.977 | > 2000 |

compound: Cc1cc(N2CCOCC2)cc2[nH]c(-c3c(NC[C@@H](O)c4cccc(Cl)c4)cc[nH]c3=O)nc12 [BMS-536924]; test: as above; settings: top dose 4 µM; screen: GDSC drug entry 1091; top dose inferred
Protocol: as §1

| Cell Line | AUC | IC50 [nM] |
| --- | --- | --- |
| LOU-NH91 (lung squamous cell carcinoma, adherent) | 0.927 | > 4000 |
| LS-180 (large intestine, adherent) | 0.926 | > 4000 |
| M059J (glioma, adherent) | 0.961 | > 4000 |
| MES-SA (uterus, adherent) | 0.977 | > 4000 |
| MFE-280 (endometrium, adherent) | 0.869 | > 4000 |
| MFE-296 (endometrium, adherent) | 0.894 | > 4000 |
| MOG-G-CCM (glioma, adherent) | 0.967 | > 4000 |
| NCI-H28 (mesothelioma, adherent) | 0.88 | > 4000 |
| NCI-H630 (large intestine, adherent) | 0.811 | 2330 |
| NCI-H650 (lung adenocarcinoma, adherent) | 0.953 | > 4000 |
| NCI-H810 (large cell lung carcinoma, adherent) | 0.987 | > 4000 |
| NCI-H1437 (lung adenocarcinoma, adherent) | 0.767 | 1550 |
| NCI-H1563 (lung adenocarcinoma, adherent) | 0.905 | > 4000 |
| NCI-H1623 (lung adenocarcinoma, adherent) | 0.953 | > 4000 |
| NCI-H1651 (lung adenocarcinoma, adherent) | 0.979 | > 4000 |
| NCI-H1755 (lung adenocarcinoma, adherent) | 0.814 | 2610 |
| NCI-H1781 (lung adenocarcinoma, adherent) | 0.963 | > 4000 |
| NCI-H1993 (lung adenocarcinoma, adherent) | 0.961 | > 4000 |
| NCI-H2087 (lung adenocarcinoma, semi-adherent) | 0.882 | > 4000 |
| NCI-H2291 (lung adenocarcinoma, adherent) | 0.866 | > 4000 |
| NCI-H2347 (lung adenocarcinoma, adherent) | 0.919 | > 4000 |
| NUGC-4 (stomach, adherent) | 0.879 | > 4000 |
| PC-14 (lung adenocarcinoma, adherent) | 0.907 | > 4000 |
| PFSK-1 (medulloblastoma, adherent) | 0.743 | 1300 |
| RCM-1 (large intestine, adherent) | 0.934 | > 4000 |

compound: CNC(=O)c1ccc(Nc2cc(Nc3ccccc3S(=O)(=O)C(C)C)c3cc[nH]c3n2)nc1 [HG-5-113-01]; test: as above; settings: top dose 10 µM; top dose inferred
Protocol: as §1

| Cell Line | AUC | IC50 [nM] |
| --- | --- | --- |
| LOU-NH91 (lung squamous cell carcinoma, adherent) | 0.862 | 9850 |
| LS-180 (large intestine, adherent) | 0.955 | > 10000 |
| M059J (glioma, adherent) | 0.817 | 6190 |
| MES-SA (uterus, adherent) | 0.555 | 864 |
| MFE-280 (endometrium, adherent) | 0.641 | 1700 |
| MFE-296 (endometrium, adherent) | 0.686 | 2170 |
| MOG-G-CCM (glioma, adherent) | 0.859 | > 10000 |
| NCI-H28 (mesothelioma, adherent) | 0.691 | 2560 |
| NCI-H630 (large intestine, adherent) | 0.832 | 7030 |
| NCI-H650 (lung adenocarcinoma, adherent) | 0.778 | 4480 |
| NCI-H810 (large cell lung carcinoma, adherent) | 0.729 | 2710 |
